The other results are listed elsewhere or left out. Many values rest on one well or one pass, so single values are uncertain.
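Further: cell number obtained by counting DAPI-stained nuclei in high-throughput microscope images with image analysis software, screen run in 1,536-well plates.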

The test system of this test is MEL-HO. Briefly: cell count relative to DMSO control; melanoma cells; higher = more viable cells. The following applies: library dose: low library concentration; 72 h.
`COCC[n+]1c2c(n(Cc3cnccn3)c1C)C(=O)c1ccccc1C2=O` + Cn1nnc2c(C(N)=O)ncn2c1=O [temozolomide] (first compound 0.0004 µM, partner dose 2 µM) gave a cell count of 91.5%.
As to `Clc1ccc(Nc2nnc(Cc3ccncc3)c3ccccc23)cc1` [vatalanib] + COc1ccc(Cl)c(Nc2nc3ccccc3nc2NS(=O)(=O)c2cccc(NC(=O)C(C)(C)N)c2)c1 [XL147] (first compound 2 µM, partner dose 0.8 µM), the cell count stood at 79.4%.
With `Cn1c(Nc2ccc(C(F)(F)F)cc2)nc2cc(Oc3ccnc(-c4ncc(C(F)(F)F)[nH]4)c3)ccc21` + C[C@@H]1CCN(C(=O)CC#N)C[C@@H]1N(C)c1ncnc2[nH]ccc12 [CP690550] (first compound 0.08 µM, partner dose 1 µM), the cell count stood at 76%.
The result for `Clc1ccc(Nc2nnc(Cc3ccncc3)c3ccccc23)cc1` [vatalanib] + Cc1nc(Nc2ncc(C(=O)Nc3c(C)cccc3Cl)s2)cc(N2CCN(CCO)CC2)n1 [dasatanib] (first compound 2 µM, partner dose 0.004 µM) reads 71.2%; that for `C#Cc1cccc(Nc2ncnc3cc(OCCOC)c(OCCOC)cc23)c1` [erlotinib] + Nc1cccc2c1CN(C1CCC(=O)NC1=O)C2=O [lenalidomide] (first compound 0.8 µM, partner dose 1 µM), 98.9%.
The same measure for `Clc1ccc(Nc2nnc(Cc3ccncc3)c3ccccc23)cc1` [vatalanib] + Cn1nnc2c(C(N)=O)ncn2c1=O [temozolomide] (first compound 2 µM, partner dose 2 µM): 102%.
As for `Clc1ccc(Nc2nnc(Cc3ccncc3)c3ccccc23)cc1` [vatalanib] + C[C@]1(c2nc3c(C(N)=O)cccc3[nH]2)CCCN1 [Veliparib] (first compound 2 µM, partner dose 1.4 µM), the cell count turned out to be 97.9%.
The result for `C#Cc1cccc(Nc2ncnc3cc(OCCOC)c(OCCOC)cc23)c1` [erlotinib] + C[C@]1(c2nc3c(C(N)=O)cccc3[nH]2)CCCN1 [Veliparib] (first compound 0.8 µM, partner dose 1.4 µM) reads 83.2%; that for `OCc1c[nH]c2ccccc12` [Indole-3-carbinol] + Cn1nnc2c(C(N)=O)ncn2c1=O [temozolomide] (first compound 0.8 µM, partner dose 2 µM), 94.2%; that for `Cn1c(Nc2ccc(C(F)(F)F)cc2)nc2cc(Oc3ccnc(-c4ncc(C(F)(F)F)[nH]4)c3)ccc21` + Nc1cccc2c1CN(C1CCC(=O)NC1=O)C2=O [lenalidomide] (first compound 0.08 µM, partner dose 1 µM), 76%.
Compound `Nc1cccc2c1CN(C1CCC(=O)NC1=O)C2=O` (stereo unspecified) [lenalidomide] + Cn1nnc2c(C(N)=O)ncn2c1=O [temozolomide] (first compound 1 µM, partner dose 2 µM) yielded a cell count of 99.2%.
The same measure for `O=C(CCCCCCC(=O)Nc1ccccc1)NO` [vorinostat] + COc1cc(Nc2ncc(F)c(Nc3ccc4c(n3)NC(=O)C(C)(C)O4)n2)cc(OC)c1OC [Tamatinib] (first compound 0.08 µM, partner dose 0.4 µM): 98.2%.
The same measure for `Cn1c(Nc2ccc(C(F)(F)F)cc2)nc2cc(Oc3ccnc(-c4ncc(C(F)(F)F)[nH]4)c3)ccc21` + Cn1cncc1[C@@](N)(c1ccc(Cl)cc1)c1ccc2c(c1)c(-c1cccc(Cl)c1)cc(=O)n2C [tipifarnib] (first compound 0.08 µM, partner dose 0.01 µM): 77.7%.
The same measure for `C#Cc1cccc(Nc2ncnc3cc(OCCOC)c(OCCOC)cc23)c1` [erlotinib] + Cn1c(Nc2ccc(C(F)(F)F)cc2)nc2cc(Oc3ccnc(-c4ncc(C(F)(F)F)[nH]4)c3)ccc21 [CHIR265] (first compound 0.8 µM, partner dose 0.08 µM): 75.9%; for `Clc1ccc(Nc2nnc(Cc3ccncc3)c3ccccc23)cc1` [vatalanib] + C#Cc1cccc(Nc2ncnc3cc(OCCOC)c(OCCOC)cc23)c1 [erlotinib] (first compound 2 µM, partner dose 0.8 µM): 99.1%; for `OCc1c[nH]c2ccccc12` [Indole-3-carbinol] + Nc1cccc2c1CN(C1CCC(=O)NC1=O)C2=O [lenalidomide] (first compound 0.8 µM, partner dose 1 µM): 108%.

These data come from the supplement of paper PMC4604168 (melanoma cell lines).
